# From PubChem BioAssay AID1468 (National Center for Advancing Translational Sciences (NCATS), 2008)
# Screen size: about 280,000 compounds; about 1,100 (0.39%) were called active. Inconclusive results, whose numbers are uncertain, are shown with a selection of clear calls. Calls come from the whole dose curve; as a rule, active = well fitted inhibition curve with a large enough effect; inconclusive = small, poorly fitted or top-dose-only effect, or effect the other way; inactive = flat fitted curve, though single readings scatter. No potency is given beside an inconclusive call; the fits are too rough.
# Target: Microtubule-associated protein tau (Homo sapiens) (UniProt P10636)
# Chain of UniProt P10636 (P10636 whole entry, looked up): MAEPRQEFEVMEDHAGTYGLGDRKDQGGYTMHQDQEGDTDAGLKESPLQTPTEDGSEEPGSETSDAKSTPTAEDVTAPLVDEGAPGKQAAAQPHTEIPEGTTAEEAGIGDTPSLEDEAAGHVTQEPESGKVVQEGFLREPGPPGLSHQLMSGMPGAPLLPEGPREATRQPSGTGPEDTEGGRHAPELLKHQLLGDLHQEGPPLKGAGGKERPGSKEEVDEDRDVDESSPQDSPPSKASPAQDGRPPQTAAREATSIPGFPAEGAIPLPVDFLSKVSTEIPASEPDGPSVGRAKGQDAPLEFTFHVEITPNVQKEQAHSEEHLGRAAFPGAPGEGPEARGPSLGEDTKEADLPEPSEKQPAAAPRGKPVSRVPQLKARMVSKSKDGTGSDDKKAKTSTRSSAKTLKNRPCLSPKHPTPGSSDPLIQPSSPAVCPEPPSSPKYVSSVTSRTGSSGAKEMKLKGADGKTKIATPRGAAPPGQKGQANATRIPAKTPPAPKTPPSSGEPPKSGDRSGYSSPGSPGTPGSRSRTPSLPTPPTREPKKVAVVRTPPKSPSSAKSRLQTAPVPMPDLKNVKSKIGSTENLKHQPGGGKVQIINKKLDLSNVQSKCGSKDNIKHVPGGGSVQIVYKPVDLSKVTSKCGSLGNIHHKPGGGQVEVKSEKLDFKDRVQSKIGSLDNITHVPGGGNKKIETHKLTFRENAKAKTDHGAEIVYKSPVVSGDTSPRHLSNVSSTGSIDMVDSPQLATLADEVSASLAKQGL
# Experiment: qHTS for Inhibitors of Tau Fibril Formation, Fluorescence Polarization; note: nearly all actives have a fitted effect of over 55% in size
# Details: K18 P301L tau heparin fibrillization, Alexa594 FP, 6 h; series mostly up to 57.7 µM
# Outline: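 Steps: dispense K18 P301L tau (15 uM plus 0.24 uM Alexa 594 tracer, final) in pH 7 sodium acetate; add compound; add heparin (20 uM final); incubate 6 hr, 37 C; add ThT (30 uM final); after 1 hr ambient, read FP.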
# Potency is the fitted concentration of half-maximal effect; tags give direction and shape of the fitted curve.
row,Structure (SMILES),Potency
1,COCCNC(=O)CSc1ncnc2sc(-c3ccccc3)cc12,"inconclusive [inhibitor, single point]"
2,CCOC(=O)CC(=O)CSc1ncnc2c1nnn2-c1ccc(F)cc1,"inconclusive [inhibitor, partial curve, poor fit]"
3,Cc1[nH]nc(SCC(=O)Nc2ccc(C#N)cc2)c1[N+](=O)[O-],inactive
4,Oc1ccc(Br)cc1-c1cc(-c2ccco2)[nH]n1,"inconclusive [inhibitor, single point]"
5,CSC(=CC(=O)c1ccc(F)cc1)SC,"inconclusive [inhibitor, single point]"
6,O=C(O)c1ccc(Cl)c(S(=O)(=O)Nc2ccc3[nH]c(=O)[nH]c3c2)c1,"inconclusive [inhibitor, partial curve]"
7,Cc1ccccc1OCC(=O)N(Cc1ccc(N(C)C)cc1)C1CCS(=O)(=O)C1 (configuration not stated),inactive
8,COc1ccc(-c2noc(CNC(=O)Nc3ccc(F)cc3)n2)cc1,"inconclusive [inhibitor, single point]"
9,COc1cc(NC(=O)CSc2nc3nc(C)c(Cc4ccc(C)cc4)c(C)n3n2)cc(OC)c1OC,"inconclusive [activator, partial curve]"
10,O=C(Nc1ccc(F)cc1F)c1ccc2c(O)c(S(=O)(=O)c3ccc(Cl)cc3)c(=O)[nH]c2c1,inactive
11,CCOC(=O)N1CCc2c(sc3c2c(=O)n(Cc2ccccc2)c(=O)n3CC(=O)Nc2ccc(C)c(C)c2)C1,"inconclusive [inhibitor, partial curve]"
12,Cc1ccc(NC(=O)CCC(=O)N2CCSc3ccccc32)cc1Cl,"inconclusive [inhibitor, single point]"
13,O=C(NCc1ccncc1)NC1CCCCC1,"inconclusive [inhibitor, full curve, poor fit]"
14,Cc1c(NC(=O)c2cccc3c(Cl)cccc23)cccc1-c1nc2ccccc2o1,"inconclusive [inhibitor, single point]"
15,COc1ccc(C2=NN(CN3C(=O)C(=O)c4ccccc43)C(c3cccc([N+](=O)[O-])c3)C2)cc1 (configuration not stated),inactive
16,O=C(CN1C(=O)/C(=C/c2ccccc2)SC1=S)Nc1cccnc1,"inconclusive [inhibitor, single point]"
17,CC(C)CNC(=O)c1ccc(NC(=O)c2ccccc2[N+](=O)[O-])cc1,"inconclusive [inhibitor, single point]"
18,CC(=O)c1ccc(NC(=O)Cn2cc(S(=O)(=O)Cc3ccccc3Cl)c3ccccc32)cc1,"inconclusive [inhibitor, partial curve]"
19,Cc1onc(-c2ccccc2)c1C(=O)Nc1cccnc1,inactive
20,Cc1c(Cl)cccc1NC(=O)Nc1nnc(N(C)Cc2ccccc2)s1,"inconclusive [activator, partial curve]"
21,COc1cccc(-n2c(C)c3c(OC)cccc(=O)c3c2C)c1,"inconclusive [inhibitor, partial curve, poor fit]"

row,Structure (SMILES),Potency
1,CC(Sc1cn(CCNC(=O)c2ccccc2F)c2ccccc12)c1ccccc1 (configuration not stated),"inconclusive [inhibitor, partial curve]"
2,O=C(Nc1ccc(Nc2ccccc2)cc1)Nc1ccccc1Cl,"inconclusive [inhibitor, single point]"
3,Cc1ccc2nc(C)c(C(=O)NN=C3CCN(C)CC3)n2c1,"inconclusive [inhibitor, partial curve]"
4,COC(=O)c1ccc(NC(=O)CSc2ncc3c(n2)-c2cc(Cl)ccc2N(Cc2ccccc2)S3(=O)=O)cc1,active: 15.8 µM
5,Cc1c(N=Cc2ccncc2)c(=O)n(-c2ccccc2)n1C,inactive
6,COc1ccc(NC(=O)c2c(NCc3sccc3C)sc3c2CCCCC3)c(OC)c1,"inconclusive [inhibitor, partial curve, poor fit]"
7,CC(Oc1cccc(NC(=O)c2cccs2)c1)C(=O)c1ccccc1 (configuration not stated),"inconclusive [inhibitor, partial curve]"
8,CCOc1cccc(C(=O)N(Cc2ccc(CC)cc2)C2CCS(=O)(=O)C2)c1 (configuration not stated),inactive
9,O=C(NCc1ccccc1)c1c[nH]c2ccc(S(=O)(=O)Nc3ccc4c(c3)OCCO4)cc2c1=O,"inconclusive [inhibitor, partial curve]"
10,C[C@@H]1CC2C3CCC4=CC(=O)C=CC4(C)[C@@]3(F)[C@@H](O)CC2(C)[C@@]1(O)C(=O)CO (some centres not stated),inactive
11,Cc1cc(C)c(C(=O)COC(=O)c2ccc([N+](=O)[O-])o2)cc1C,inactive
12,S=C(Nc1ccccc1)Nc1cc(Cl)ccc1Oc1ccccc1,"inconclusive [inhibitor, partial curve]"
13,COc1ccc(NC(=O)c2ccc(CN3CCN(c4ccccc4)CC3)cc2)cc1OC,inactive
14,O=C(Cn1nc(-c2ccccc2)c2ccccc2c1=O)Nc1ccc(F)cc1,"inconclusive [inhibitor, partial curve]"
15,CCCCCCn1c(O)c(/C=C2\C=NN=C2c2ccccc2)sc1=S,inactive
16,CCCn1c(NC(=O)c2cccc(C)c2C)nc2ccccc21,inactive
17,COc1cc2nc(SCC(=O)Nc3ccccc3F)n3nc(-c4ccccc4)nc3c2cc1OC,"inconclusive [inhibitor, single point]"
18,COc1ccc(-c2nc3ccc(NS(=O)(=O)c4ccc(Cl)cc4)cc3o2)cc1,"inconclusive [inhibitor, partial curve]"
19,CCc1ccc(NC(=O)CSc2nc3c(sc4ccccc43)c(=O)n2CCCOC(C)C)cc1,"inconclusive [inhibitor, single point]"
20,COc1ccccc1/C=C/c1nc(C#N)c(NCCc2ccccc2)o1,"inconclusive [activator, full curve]"
21,CCOC(=O)c1ccc(NC(=O)c2nc[nH]c2C(=O)N(C)Cc2ccccc2)cc1,"inconclusive [inhibitor, single point]"
